Laboratory results reported in the supplement of paper PMC12230231.

System: SIVsab (simian immunodeficiency virus of sabaeus monkeys), single-cycle GFP reporter, in CRFK cells
Assay: enrichment among uninfected cells over input (fold); higher = stronger restriction
Description: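 Pools of CRFK cells expressing variants of the TRIM5α v1 loop were challenged with the single-cycle reporter, sorted by GFP and sequenced; mean of two replicates.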

[1] = library: insertions and deletions

| Sequence | enrichment (library: human / rhesus combinations) | enrichment [1] |
| --- | --- | --- |
| MASGILVNVKEEVTCPICLELLTQPLSLDCGHSFCQACLTANHKKSMLDKGESSCPVCRISYQPENIRPNRHVANIVEKLREVKLSPEGQKVDHCARHGEKLLLFCQEDGKVICWLCERSQEHRGHHTFLTEEVAREYQVKLQAALEMLRQKQQEAEELEADIREEKASWKTQIQYDKTNVLADFEQLRDILDWEESNELQNLEKEEEDILKSLTNSETEMVQQTQSLRELISDLEHRLQGSVMELLQGVDGVIKRTENVTLKKPETFPKNQRRVFRAPDLKGMLEVFRELTDVRRYWVDVTVAPNNISCAVISEDKRQVSSPKPQIIYGARGTLFTFQSFVNFNYCTGILGSQSITSGKHYWEVDVSKKTAWILGVCAGFQPDAMCNIEKNENYQPKYGYWVIGLEEGVKCSAFQDSSFHTPSVPFIVPLSVIICPDRVGVFLDYEACTVSFFNITNHGFLIYKFSHCSFSQPVFPYLNPRKCGVPMTLCSPSS [human TRIM5α, 330-340 = GARGTLFTFQSFV] | 0.282 ± 0.25 | – |
| MASGILVNVKEEVTCPICLELLTQPLSLDCGHSFCQACLTANHKKSMLDKGESSCPVCRISYQPENIRPNRHVANIVEKLREVKLSPEGQKVDHCARHGEKLLLFCQEDGKVICWLCERSQEHRGHHTFLTEEVAREYQVKLQAALEMLRQKQQEAEELEADIREEKASWKTQIQYDKTNVLADFEQLRDILDWEESNELQNLEKEEEDILKSLTNSETEMVQQTQSLRELISDLEHRLQGSVMELLQGVDGVIKRTENVTLKKPETFPKNQRRVFRAPDLKGMLEVFRELTDVRRYWVDVTVAPNNISCAVISEDKRQVSSPKPQIIYGARGTRYTGILGSQSITSGKHYWEVDVSKKTAWILGVCAGFQPDAMCNIEKNENYQPKYGYWVIGLEEGVKCSAFQDSSFHTPSVPFIVPLSVIICPDRVGVFLDYEACTVSFFNITNHGFLIYKFSHCSFSQPVFPYLNPRKCGVPMTLCSPSS [human TRIM5α, 9-codon deletion at 337] | – | 1.37 ± 0.35 |
| MASGILVNVKEEVTCPICLELLTQPLSLDCGHSFCQACLTANHKKSMLDKGESSCPVCRISYQPENIRPNRHVANIVEKLREVKLSPEGQKVDHCARHGEKLLLFCQEDGKVICWLCERSQEHRGHHTFLTEEVAREYQVKLQAALEMLRQKQQEAEELEADIREEKASWKTQIQYDKTNVLADFEQLRDILDWEESNELQNLEKEEEDILKSLTNSETEMVQQTQSLRELISDLEHRLQGSVMELLQGVDGVIKRTENVTLKKPETFPKNQRRVFRAPDLKGMLEVFRELTDVRRYWVDVTVAPNNISCAVISEDKRQVSSPKPQIIYGARGTRYQTFNFNYCTGILGSQSITSGKHYWEVDVSKKTAWILGVCAGFQPDAMCNIEKNENYQPKYGYWVIGLEEGVKCSAFQDSSFHTPSVPFIVPLSVIICPDRVGVFLDYEACTVSFFNITNHGFLIYKFSHCSFSQPVFPYLNPRKCGVPMTLCSPSS [human TRIM5α, 1-codon deletion at 340] | – | 0.987 ± 0.55 |
| MASGILVNVKEEVTCPICLELLTQPLSLDCGHSFCQACLTANHKKSMLDKGESSCPVCRISYQPENIRPNRHVANIVEKLREVKLSPEGQKVDHCARHGEKLLLFCQEDGKVICWLCERSQEHRGHHTFLTEEVAREYQVKLQAALEMLRQKQQEAEELEADIREEKASWKTQIQYDKTNVLADFEQLRDILDWEESNELQNLEKEEEDILKSLTNSETEMVQQTQSLRELISDLEHRLQGSVMELLQGVDGVIKRTENVTLKKPETFPKNQRRVFRAPDLKGMLEVFRELTDVRRYWVDVTVAPNNISCAVISEDKRQVSSPKPQIIYGARRYQTFVNFNYCTGILGSQSITSGKHYWEVDVSKKTAWILGVCAGFQPDAMCNIEKNENYQPKYGYWVIGLEEGVKCSAFQDSSFHTPSVPFIVPLSVIICPDRVGVFLDYEACTVSFFNITNHGFLIYKFSHCSFSQPVFPYLNPRKCGVPMTLCSPSS [human TRIM5α, 2-codon deletion at 333] | – | 0.835 ± 0.19 |

± gives the standard deviation of the averaged measurements. Restriction of a single-cycle SIVsab GFP reporter by TRIM5α v1-loop variants in CRFK cells. Human variants: read share among cells still uninfected after two challenges over input, higher = gained restriction. Rhesus variants: share among infected cells over input, higher = lost restriction. Reporter dose not given per row. No active / inactive call per row; the paper calls a change when both replicates lie above its controls (mean + 2 SD of stop or wild-type variants, or the top frameshift score). Residues outside the varied loop are taken from Swiss-Prot. The paper reads the human single-substitution scores as noise; they and the rhesus combinations repeat poorly (rank correlation 0.3 to 0.4), indel scores repeat only for the top variants, rhesus substitutions well (0.9).
